For 97 compounds, inhibition results are on record in PubChem BioAssay AID485344 (National Center for Advancing Translational Sciences (NCATS), 2010).

Out of some 340,000 compounds screened, about 6,900 (2%) were called active. Rule as the data show it: active = inhibition above about 30%; inactive = below that, where a call was filed. The list shows a part of the results, in another mix than the full data. Where no call is shown, the source filed none.

The assay addresses D(2) dopamine receptor (Homo sapiens) (UniProt P14416). In words: HTS Assay for Allosteric Antagonists of the Human D2 Dopamine Receptor: Primary Screen for Antagonists. Also: 0% is about no effect. As to conditions: HEK293 TREx D2 cells, calcium flux, dopamine EC80; at 10 µM; stronger effect = higher value. Put shortly: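 Calcium flux kinetic readout in an inducible HEK293 TREx D2 line plated overnight at 30 C. After 180 s compound exposure, an EC80 dopamine challenge follows with another 180 s kinetic read to detect antagonism.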
UniProt P14416, sequence (P14416 whole entry, looked up): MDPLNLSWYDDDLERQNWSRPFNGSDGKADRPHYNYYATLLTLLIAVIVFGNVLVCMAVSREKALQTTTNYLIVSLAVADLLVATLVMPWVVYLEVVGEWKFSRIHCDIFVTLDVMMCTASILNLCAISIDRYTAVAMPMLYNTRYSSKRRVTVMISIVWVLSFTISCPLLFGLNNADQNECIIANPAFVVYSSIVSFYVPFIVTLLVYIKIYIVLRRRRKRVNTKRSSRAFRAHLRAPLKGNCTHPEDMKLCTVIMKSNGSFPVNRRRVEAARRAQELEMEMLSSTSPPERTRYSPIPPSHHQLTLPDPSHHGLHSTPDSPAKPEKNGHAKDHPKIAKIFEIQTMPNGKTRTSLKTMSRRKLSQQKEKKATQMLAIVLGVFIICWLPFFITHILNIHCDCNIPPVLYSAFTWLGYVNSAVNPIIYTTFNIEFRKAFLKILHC
In general terms: Calcium flux is commonly read through the fluorescence of an indicator in the cells.
On to `CCc1nn2c(=O)c(S(=O)(=O)Nc3ccc(OC)c(Cl)c3)c(C)nc2s1`, for which the inhibition was -7.21%.

Consider `Cc1ccc(CSc2nc3ccc(NC(=O)C(C)C)cc3s2)cc1`, for which the inhibition stood at 18.3%.

In the case of `COc1cc(/C=C2\SC(c3ccc(C)cc3)=NC2=O)ccc1O`, the inhibition is active: 32.1%.

Consider `CCN(Cc1ccccc1)C(=O)Cn1c(=O)n(Cc2ccccc2)c(=O)c2c1c1cc(OC)ccc1n2C`, for which the inhibition was -2.8%.

For `COc1ccc(C(CC(=O)Nc2ccc(C)c(C)c2)N2Cc3ccccc3C2=O)cc1OC` (configuration not stated), the inhibition turned out to be 8.15%.

As to `CCOC(=O)C1CCCN(Cc2ccc(-c3ccccc3)cc2)C1` (configuration not stated), the inhibition was active: 57.9%.

Take `COc1ccc2c(c1)-c1nc(NC(=O)c3cc(Cl)ccc3OC)sc1CC2`: the inhibition was -7.18%.

With `CCCCCn1cnc2c(=S)nc(N)[nH]c21`, the inhibition is active: 48.6%.

Turning to `Cc1cc(OC(=O)c2cc(-c3ccc4c(c3)OCCO4)on2)ccc1Cl`, the inhibition was determined as 13.6%.

As to `COc1ccccc1CNC(=O)CCn1c(=O)c2ccccc2n(CC(=O)Nc2ccc(C)cc2C)c1=O`, the inhibition was 8.33%.

As for `CN1c2ccccc2-c2nc(SCC(=O)Nc3ccccc3C(F)(F)F)ncc2S1(=O)=O`, the inhibition was -4.41%.

With `CC(=O)c1c(C)oc2ccc(N(C(=O)Oc3ccccc3)S(=O)(=O)c3ccc(C(C)(C)C)cc3)cc12`, the inhibition is -2.22%.

Take `CCc1cccc(C)c1NC(=O)c1cc(C)nc2c1c(C)nn2-c1cccc(Cl)c1C`: the inhibition was found to be 16.8%.

Regarding `COc1ccc(C)cc1NC(=O)CN(c1cc(C(F)(F)F)ccc1Cl)S(C)(=O)=O`, the inhibition was 15%.

`COc1cc(NC(=O)c2cc(Cl)c(OC)c(Cl)c2)ccc1NC(=O)c1cc2ccccc2o1`: the inhibition stood at 5.61%.

As to `COC(=O)c1cc(NC(=O)Cn2nc(C)n3cccc3c2=O)cc(C(=O)OC)c1`, the inhibition is -20.5%.

On to `Cc1ccc(-c2c(C(=O)NCc3ccccc3)oc(=O)c3ccccc23)cc1`, for which the inhibition is -5.36%.

As to `CCOC(=O)C1=C(CS(=O)(=O)c2ccc(Br)cc2)NC(=O)NC1c1ccccc1` (configuration not stated), the inhibition amounted to 1.3%.

For `Cc1ccccc1CNC(=O)c1ccc(-c2nc(CS(=O)(=O)c3ccccc3)c(C)o2)cc1`, the inhibition came to 4.41%.

`CCCCN(C)C(=O)C(Cc1ccccc1)NS(=O)(=O)c1ccc2c(c1)c(=O)n(C)c(=O)n2C` (configuration not stated): the inhibition came out at 1.14%.

Take `COc1ccc(-c2nnc(SCC(=O)Oc3c(C)cccc3C)o2)cc1OC`: the inhibition worked out at 18.1%.

Regarding `Cc1oc(-c2cccc(Cl)c2)nc1CN1CCCC(C(=O)NCc2ccc(F)cc2)C1` (configuration not stated), the inhibition is 11.7%.

With `CC(C)OCCCNC(=O)c1ccc2c(=O)n(CCc3ccccc3)c(=O)[nH]c2c1`, the inhibition is 11.5%.

Take `C=CCc1cccc2cc(C(=O)Nc3cccc(Cl)c3)c(=O)oc12`: the inhibition came to 3.45%.

On to `CCOC(=O)c1sc2ccccc2c1S(=O)(=O)Nc1cccc(C(F)(F)F)c1`, for which the inhibition worked out at 2.31%.

With `Cc1cccc(C(=O)NCCc2sc(-c3ccccc3)nc2C)c1`, the inhibition stood at 21.3%.

Take `Cc1cn(C)c(CC(=O)Nc2cccc(Cl)c2C)c1C(=O)O`: the inhibition was 26.1%.

For `CCc1ccc(NC(=O)c2ccc(F)c(S(=O)(=O)N3CCC(C)CC3)c2)cc1`, the inhibition came to 9.01%.

Turning to `Cc1ccc(C)c(Cn2nnc(C(=O)NCc3ccc(Cl)cc3Cl)c2N)c1`, the inhibition was -7.93%.

With `COc1cc2c(cc1NS(=O)(=O)c1cccc(C#N)c1)n(C)c(=O)n2C`, the inhibition was -11.6%.

For `Cc1cc(C)cc(NC(=O)CN2C(=O)c3ccccc3Sc3ccc(C(=O)N4CCOCC4)cc32)c1`, the inhibition amounted to 5.05%.

Turning to `COc1ccc(N(CC(=O)NCc2ccc(F)cc2)S(=O)(=O)c2c(C)n[nH]c2C)cc1`, the inhibition is -5.81%.

With `COc1ccc(OCCCn2c(=O)oc3ccc(C)cc32)cc1`, the inhibition amounted to 8.73%.

With `CCOc1ccccc1C(=O)Nc1c(NC)c2ccccc2oc1=O`, the inhibition was -0.0046%.

Take `O=C(NCc1cccc(F)c1)C1=Cc2cc(Br)ccc2OC1`: the inhibition was -17.8%.

For the compound `Cc1ccc(-n2ccnc(NCc3ccccc3)c2=O)cc1C`, the inhibition is 7.95%.

Take `O=C(Nc1cc(C(F)(F)F)ccc1Cl)c1cc2nc(-c3ccc4c(c3)OCO4)cc(C(F)(F)F)n2n1`: the inhibition is -4.26%.

`Cn1c(=O)oc2cc(S(=O)(=O)N3CCCC(C(=O)Nc4ccc(Br)cc4F)C3)ccc21` (configuration not stated): the inhibition amounted to 11.1%.

Consider `CCc1ccccc1NC(=O)CN1C(=O)CCc2cc(S(=O)(=O)N3CCCCC3)ccc21`, for which the inhibition was found to be 7.75%.

With `Cc1ccc(SCCOCCN2CCc3ccccc3C2)cc1`, the inhibition is active: 75%.

Turning to `Cc1ccc(CNC(=O)c2ccc(CSCc3ccc(Cl)cc3)o2)cc1`, the inhibition was 18.6%.

As for `O=C(/C=C/c1ccco1)NCCc1ccccc1`, the inhibition was active: 31.7%.

Regarding `CCCCNS(=O)(=O)c1ccc2nc(NC(=O)c3cccnc3)sc2c1`, the inhibition is 2.58%.

Turning to `COc1ccc(N2CC(NC(=O)c3ccc(S(=O)(=O)N4CCCC4)cc3)CC2=O)cc1` (configuration not stated), the inhibition is 11.6%.

Regarding `CCOC(=O)c1ccc(NC(=O)C(CC)Sc2nc3ncccc3[nH]2)cc1` (configuration not stated), the inhibition was -11.2%.

On to `COc1ccc(-n2nc(C(=O)N3CCN(c4ccccc4OC)CC3)c3c4ccccc4n(C)c3c2=O)cc1`, for which the inhibition was -5.87%.

As for `c1ccc(SCCOCCN2CCc3ccccc3C2)cc1`, the inhibition is active: 75%.

For the compound `COc1cccc(N2CC(NC(=O)/C=C\c3ccc4c(c3)OCO4)CC2=O)c1` (configuration not stated), the inhibition was 5.58%.

As for `CCC(Sc1nnc(-c2ccc(OC)cc2)c(-c2ccc(OC)cc2)n1)C(=O)NC1CCCCC1` (configuration not stated), the inhibition amounted to 8.23%.

Consider `CCn1c(C(=O)N2CCC(C(=O)NCCc3ccccc3)CC2)cc2sccc21`, for which the inhibition came to 3.85%.

In the case of `Cc1ccc(-n2c3nc(=O)n(C)c(=O)c-3cc3c(Cl)cccc32)c(C)c1`, the inhibition came to 1.86%.

With `Cc1ccc(NS(=O)(=O)c2ccc(NC(=O)N3CCCC3)cc2)cc1C`, the inhibition stood at 7.42%.

For `CC1CCCN(S(=O)(=O)c2ccc(NC(=O)c3nc(SC(C)C)ncc3Cl)cc2)C1` (configuration not stated), the inhibition turned out to be 20%.

Consider `CCCCN(Cc1ccccc1)C(=O)c1oc(=O)c2ccccc2c1-c1ccc(C)cc1`, for which the inhibition was -5%.

With `COc1ccccc1/C=C/c1nc(C#N)c(N2CCCCCC2)o1`, the inhibition was -2.14%.

Consider `O=C(CSc1nc(-c2ccccc2)nc2c1CCCC2)c1ccc(F)cc1`, for which the inhibition stood at 5.18%.

For `Cc1ccc(S(=O)(=O)c2nc(-c3ccco3)oc2SC(C)c2ccccc2)cc1` (configuration not stated), the inhibition was -2.47%.

For `CCC(=O)N1c2ccc(S(=O)(=O)NCc3cccc(OC)c3)cc2CC1C` (configuration not stated), the inhibition amounted to 4.16%.

With `Cc1ccc(CSCC(=O)N2CCCC2)cc1`, the inhibition was active: 32.8%.

On to `CCCCN(CC)CCNC(=O)c1cc2c(-c3ccc(Cl)cc3)nn(C)c2s1`, for which the inhibition is active: 71.8%.

Consider `COc1cc(NC(=O)CCc2c(C)nc3nc(-c4cc(OC)cc(OC)c4)nn3c2C)cc(OC)c1`, for which the inhibition amounted to 14.7%.

In the case of `Cc1nc2ccccc2n1CC(O)COc1ccc(C(=O)O)cc1` (configuration not stated), the inhibition is -3.8%.

For `Cc1ccc(C(=O)N2CCC(c3c[nH]c4ccccc34)(c3c[nH]c4ccccc34)CC2)cc1`, the inhibition came out at 8.04%.

Turning to `Cn1nccc1C(=O)NCc1ccc2c(c1)CCN2C(=O)c1ccc(F)cc1`, the inhibition was -24%.

As to `CC1CCN(CC[C@H]2CCCN2S(=O)(=O)c2cccc(O)c2)CC1`, the inhibition was active: 34.3%.

As to `COc1cccc(CNC(=O)c2ccc(Cn3c(SCc4ccccc4)nc4cccnc43)cc2)c1`, the inhibition worked out at 7.59%.

Take `COc1ccc(OC)c(-c2cc(C(=O)Nc3cccc(Cl)c3C)no2)c1`: the inhibition was -17.3%.

`COc1cc(Cl)ccc1Nc1ncc(C(=O)N2CCN(c3ccccc3OC)CC2)c2ccccc12`: the inhibition was -16.7%.

As to `COc1ccccc1Nc1cc(C(=O)NCCCN(C)c2ccccc2)c2ccccc2n1`, the inhibition was 4.85%.

`CCN(Cc1ccccc1)S(=O)(=O)c1ccc(F)c(C(=O)Nc2cc(C)ccc2OC)c1`: the inhibition came out at 14.3%.

As to `Cc1cccc(NC(=O)C2CCN(S(=O)(=O)c3c(C)noc3/C=C/c3ccco3)CC2)c1`, the inhibition amounted to 7.54%.

Turning to `Cc1cccc(C)c1-n1ncc(C(=O)NCCN2CCN(C)CC2)c1C1CCN(C(=O)OC(C)(C)C)CC1`, the inhibition is -9.86%.

For the compound `CCOc1ccc(C(=O)NCc2nc(-c3ccc(Cl)cc3)no2)cc1OCC`, the inhibition is -10.5%.

With `CCOC(=O)c1cnc2ccc(OC)cc2c1Nc1cccc(C(C)=O)c1`, the inhibition was 6.3%.

With `COc1ccc(CNC(=O)C2CCN(C(=O)N3CCOc4ccc(Cl)cc43)CC2)cc1`, the inhibition stood at 17%.

With `Cc1ccc(C)c(S(=O)(=O)n2nc(C)c(S(=O)(=O)N3CCCCCC3)c2C)c1`, the inhibition is -12.1%.

For `COc1ccc(NC(=O)CCCN2C(=O)CCn3nc(-c4cn(C)c5ccccc45)cc32)cc1`, the inhibition is -24.3%.

With `Cc1cc(Nc2ccccc2O)nc(C)n1`, the inhibition was -10.1%.

With `O=C(CN1C(=O)C2(SCC(=O)N2c2ccc(F)c(F)c2)c2ccccc21)Nc1cccc(Cl)c1` (configuration not stated), the inhibition was found to be 2.15%.

For the compound `O=C(CCC1CCCCC1)Nc1nccs1`, the inhibition was active: 42.6%.

On to `COc1c(C)cc(NS(=O)(=O)c2ccc3c(c2)OCCO3)cc1C`, for which the inhibition came to 17.6%.

Consider `COc1ccc2c(C)c(CCC(=O)NCc3ccccc3Cl)c(=O)oc2c1C`, for which the inhibition is -1.85%.

For `Cc1ccc(-c2nn(CCC(N)=O)c(=O)c3ccccc23)cc1`, the inhibition was -2.22%.

Take `CCOc1ccc(NC(=O)CCNS(=O)(=O)c2cccs2)cc1`: the inhibition stood at 6.21%.

Consider `Cc1cc(Br)ccc1NC(=O)CNC(=O)COc1ccccc1C`, for which the inhibition was active: 31.9%.

Regarding `COc1ccc(Cl)cc1C(=O)NCCS(=O)(=O)N1CCN(c2ccccc2OC)CC1`, the inhibition was -16%.

Consider `COc1cccc(NC(=O)Cn2c(=O)n(Cc3ccc(C(=O)NCc4ccc(C)cc4)cc3)c(=O)c3ccccc32)c1`, for which the inhibition was -4.89%.

As for `CCOC(=O)c1c(C)n(-c2ccccc2)c2ccc(OC(=O)c3c(F)cccc3F)cc12`, the inhibition came out at 13.1%.

Turning to `CCOc1ccc(Cn2c(CNS(=O)(=O)c3ccc(C(C)(C)C)cc3)nc3cccnc32)cc1`, the inhibition was 10.7%.

In the case of `CCOc1ccc(CNC(=O)C2=Cc3cccc(OC)c3OC2)cc1`, the inhibition is 20.1%.

Consider `COc1ccc(CCNC(=O)C2c3ccccc3C(=O)N2Cc2ccccc2)cc1OC` (configuration not stated), for which the inhibition was found to be 4.15%.

Take `CC(=O)N(C)c1nnc(-c2ccccn2)s1`: the inhibition was active: 42.6%.

For the compound `CCOc1ccc(NC(=O)CN(C)Cc2ccc3c(c2)OCO3)cc1S(=O)(=O)N1CCCC1`, the inhibition is active: 58.2%.

As for `O=C(Cc1ccc(NC(=O)N2CCSc3ncccc32)cc1)NCc1cccc(Cl)c1`, the inhibition is -15.1%.

Turning to `Cc1ccc2c(=O)c(C(=O)c3ccc(Cl)cc3)cn(CC(=O)Nc3ccc4c(c3)OCCO4)c2n1`, the inhibition is -0.562%.

In the case of `CCOc1ccccc1CNC(=O)c1oc2c(c1C)-c1nn(Cc3cccc(Cl)c3)cc1CC2`, the inhibition is 11.4%.

As to `Cc1cccc(C(=O)NCc2nc3ccccc3n2Cc2ccccc2Cl)c1`, the inhibition is -3.84%.

Broadly, the inhibition is the relative decrease from the control value, in per cent.
